The campaign covered roughly 48,000 compounds. About 120 (0.25%) were called active. About 4% were inconclusive and are not listed. Calls come from the whole dose curve; as a rule, active = well fitted activation curve with a large enough effect; inconclusive = small, poorly fitted or top-dose-only effect, or another doubt; inactive = no such curve, though single readings can be large or run the other way. The list shows a part of the results.
Experiment: Primary qHTS for Identification of Small Molecule Activators of Huntingtin-Antisense Promoter Activity; note: nearly all actives have a fitted effect of over 55% in size
Settings: HEK293 HTT-AS promoter firefly luciferase reporter (activity 0% = vehicle and -100% = no light), 24 h; series mostly up to 57.5 µM; activity change, positive = activation: at the top concentration
How it was run: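 Firefly luciferase signal from promoter-reporter HEK293 cells was scaled between vehicle (0%) and zero RLU (-100%). Compounds were tested at final concentrations of up to 57.5 uM over 24 h at 37 degrees C. PTC124 at 50 uM final served as control inhibitor.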

Activity change, positive = activation, inactive:
COc1ccccc1C(=O)Nc1ccc2nc(SCC(=O)N3CCCc4ccccc43)sc2c1 -23%
COc1ccc(OC)c(NC(=O)C2CCCN(S(=O)(=O)c3ccc4c(c3)CCCC(=O)N4)C2)c1 (centres undefined) -20.9%
COc1ccccc1NC(=O)C1=C(C)Nc2nc(SC)nn2C1c1ccccc1Cl (centres undefined) 10.3%
COc1cc(-c2nc(SCC(=O)Nc3ccc4c(c3)OCO4)c(-c3ccccc3)[nH]2)cc(OC)c1OC -6.95%
COc1ccc(-c2nnc(SCC(=O)N3CCC(C)CC3)o2)cc1 0.151%
COc1ccc(-c2nnc(C3CCN(S(=O)(=O)c4cccc(Cl)c4)CC3)o2)cc1 -35.6%
COc1ccccc1CNC(=O)CSc1ncc(S(=O)(=O)c2ccc(C)c(Cl)c2)c(=O)[nH]1 10.4%
CNC(=O)C1CCC(Cn2c(=O)c3sccc3n(CC(=O)N3CCCC(C)C3)c2=O)CC1 (centres undefined) -11.9%
CCCN(CCC)CCc1cccc2c1CC(=O)N2 -1.17%
COCCCNC(=O)C1CCN(Cc2cc3ccccc3n2Cc2cccc(C)c2)CC1 -21.7%
O=S(=O)(c1ccc(F)cc1)N1CCC(Oc2cccc(C(F)(F)F)c2)CC1 -28.2%
COc1c(Cl)cc(Cl)cc1C(=O)Nc1cccc(-c2nc3ccccc3o2)c1C -2.01%
CCc1ccccc1NC(=O)c1cn(C)c(=O)c2ccccc12 -5.79%
COc1ccc(S(=O)(=O)N2Cc3ccccc3CC2C(=O)Nc2ccc(C)cc2)cc1OC (centres undefined) 0.878%
COc1ccc(CCNC(=O)CCCn2c(=O)c3ccccc3n(Cc3ccccc3)c2=O)cc1OC -36.2%
COc1cccc(CNC(=O)C(=O)NCC(c2cccs2)S(=O)(=O)c2ccccc2)c1 (centres undefined) -30%
C/C=C/c1ccc(OC)cc1 -0.378%
Cc1cccc(CCNC(=O)c2cc(S(=O)(=O)N3CCCCC3)c[nH]2)c1 -18.5%
Cc1cccc(N2CCN(C(=O)c3ccc4c(c3)N(Cc3ccccc3)C(=O)c3ccccc3S4(=O)=O)CC2C)c1 (centres undefined) -28.5%
CCC(C)CCCCC(=O)N[C@@H](CCN)C(=O)NC(C(=O)N[C@H](CCN)C(=O)N[C@@H]1CCNC(=O)C([C@@H](C)O)NC(=O)[C@@H](CCN)NC(=O)[C@@H](CCN)NC(=O)[C@@H](CC(C)C)NC(=O)[C@H](Cc2ccccc2)NC(=O)[C@H](CCN)NC1=O)[C@@H](C)O (some centres undefined) -4.13%
Cc1c2cnn(-c3ccccc3)c(=O)c2c(C)n1C(C)C(=O)Nc1ccccc1C(F)(F)F (centres undefined) -23.7%
CCOC(=O)CC(NC(=O)Cn1nnc(-c2ccccc2Cl)n1)c1ccc(OC)cc1 (centres undefined) -14.7%
Cc1ccc(C)c(NC(c2ccccc2)c2nnc(-c3ccccc3F)o2)c1 (centres undefined) 29.7%
Clc1ccc(CCNc2nc3cc(Cl)c(Cl)cc3n3cnnc23)cc1 -2.16%
COc1ccc(CCN2C(=O)N(c3cccc(C)c3)C(=O)C2CC(=O)Nc2ccccc2)cc1OC (centres undefined) -20.5%
CCN(CC)c1ccc2cc(-c3nc4sc5c(c4c(=O)[nH]3)CCC(C(C)(C)C)C5)c(=O)oc2c1 (centres undefined) -6.72%
COc1cccc(NC(=O)c2c(C)oc3nc(C)nc(N4CCCC4)c23)c1 -15%
COc1ccc(CC(=O)Nc2nc3c(s2)CCCC3)cc1 -16.1%
CCC(=O)N1CCc2cc(S(=O)(=O)CCC(=O)N3CCN(c4cccc(C)c4C)CC3)ccc21 -4.34%
Cc1ccc2c(c1)N(C(=O)CCC(=O)NCc1cccc(F)c1)CC(C)O2 (centres undefined) -9.07%
Cc1cccc(C)c1NC(=O)c1cc(S(=O)(=O)N2CCc3ccccc3C2)ccc1F -32.4%
O=C(c1ccc(Cl)cc1)n1nc(-c2cccnc2)nc1NCc1ccc(F)cc1 3.47%
CCOC(=O)c1cccc(NC(=O)CCS(=O)(=O)c2ccc3c(c2)CCN3C(=O)CC)c1 -6.93%
COc1cccc2cc(-c3nc(-c4ccc(Cl)cc4)cs3)c(=O)oc12 8.09%
CC(=O)c1cccc(NC(=O)c2ccc3nc(Cc4ccccc4)oc3c2)c1 -3.76%
CCn1c(=O)c2sccc2n2c(CCCC(=O)N3CCN(c4ccc(F)cc4)CC3)nnc12 -10.9%
CCCCOc1ccc(C(=O)N(Cc2ccccc2)C2CCS(=O)(=O)C2)cc1 (centres undefined) 2.37%
CCCCOC(=O)c1c(C)oc2c1cc(NS(=O)(=O)c1cc(OC)ccc1OC)c1ccccc12 -24%
CCOc1ccc(-c2nnc(SCC(=O)Nc3cccc(C#N)c3)o2)cc1 -76.1%
COc1ccc(-c2c(C)c3ccc(O)c(CN4CCOCC4)c3oc2=O)cc1OC -16.4%
COc1cccc(NC(=O)Nc2ccc3c(c2)N(C)C(=O)c2ccccc2S3)c1 -24.5%
CC1CCN(C(=O)Cn2c(-c3cccs3)cc3cc(Cl)ccc32)CC1 -26.2%
CCCN1Cc2cccc(C(=O)Nc3cc(Cl)ccc3C)c2C1=O -7.02%
Cc1cc(C)c2c(c1)c(C)cc1nnc(SCC(=O)c3ccccc3)n12 1.54%
Cc1ccc(C)c(NC(=O)C(CC(C)C)N2Cc3ccccc3C2=O)c1 (centres undefined) -11.1%
O=C(CSc1nccn1Cc1ccc(F)cc1)NCc1ccco1 9.14%
O=C(CN1C(=O)c2ccccc2Sc2ccc(C(=O)N3CCOCC3)cc21)Nc1ccc(Cl)cc1F -4.21%
Cc1cccc(NC(=O)c2sc3ncnc(N(C)C4CCCCC4)c3c2C)c1C -19.6%
Cc1ccc2onc(CC(=O)N3CCN(c4cccc(Cl)c4)CC3)c2c1 -27.5%
COc1ccc(NC(=O)Cn2c(=O)oc3cc(S(=O)(=O)N4CCCCCC4)ccc32)cc1OC -17.6%
C[C@]12CC[C@@H]3c4ccc(O)cc4CC[C@H]3[C@H]1CC[C@H]2O -24%
Cc1cc(F)ccc1NC(=O)Cn1cc(S(=O)(=O)NC(C)C)c(S(=O)(=O)NC(C)C)c1 -3.49%
CCCCSc1nc2sc3c(c2c(=O)n1-c1ccccc1C)CC(C)(C)OC3 -12%
CCOc1ccc(-n2cc(-c3ccccc3)c3c(Nc4cccc(F)c4)ncnc32)cc1 -2.5%
COc1ccc(NC(=O)CNC(=O)Cn2c(C)cc3ccccc3c2=O)c(OC)c1 -14.7%
O=C(c1ccccc1)N1CCN(CCc2ccccn2)CC1 -6.91%
COc1cccc(C(=O)Nc2c(C(=O)Nc3ccc(F)cc3)oc3ccccc23)c1OC 25.4%
CCOc1ccc(C(=O)Nc2nnc(SCc3cc(=O)n4ccccc4n3)s2)cc1 15.7%
CCN(Cc1ccccc1)S(=O)(=O)c1cc(Br)cc2c1N(C(=O)C1CC1)CC2 -31.8%
Cc1ccc(NC(=O)c2cnc(N3CCCC3)nc2C)cc1F 5.98%
COC(=O)c1ccc(NC(=O)C(=O)NCCc2csc(-c3ccc(F)cc3)n2)cc1 -10.6%
Cc1ccc(O)c(NC(=O)C2=CC(c3ccco3)=NS(=O)(=O)N2C)c1 -17.4%
O=C(CSc1ncccc1C(=O)Oc1ccccc1Cl)Nc1ccc(C(F)(F)F)cc1Cl -5.34%
COc1ccc(N2CCN(Cc3nc4c(c(=O)[nH]c(=O)n4C)n3Cc3ccccc3C)CC2)cc1 -0.764%
Cc1csc2nc(COC(=O)CNC(=O)c3ccccc3)cc(=O)n12 -4.92%
Cc1ccc(CN(C(=O)COc2ccccc2[N+](=O)[O-])c2ccccn2)o1 5.97%
O=c1oc2ccccc2cc1-c1cn2cc(Cc3cc(Cl)ccc3Cl)sc2n1 -13.7%
COc1ccc(NC(=O)C2CCCN(S(=O)(=O)c3ccc(F)cc3)C2)cc1 (centres undefined) -19%
CCN(CC)S(=O)(=O)c1ccc2c(c1)N(CC(=O)Nc1cccc(C#N)c1)C(=O)CO2 -17.3%
CCc1nnc(NC(=O)CSc2nc3c([nH]c4ccccc43)c(=O)n2-c2ccc(Cl)cc2)s1 -23.1%
FC(F)(F)c1cc(-c2ccccc2)nc2cc(-c3ccccc3)nn12 16.4%
NC(=O)c1cccc(-c2cccc(OC(=O)NC3CCCCC3)c2)c1 8.42%
CC1CCN(C(=O)CSc2nc(-c3ccc(F)cc3)cc(C(F)(F)F)n2)CC1 -25.5%
CCOC(=O)c1sc(NC(=O)c2c(-c3ccccc3)c(-c3ccccc3)nn(C)c2=O)nc1C -19%
Cc1cccc(-n2c(=O)c3ccccc3n(Cc3ccc(F)cc3)c2=O)c1 -24.6%
CCc1ccc(Nc2nc3ccccc3nc2NS(=O)(=O)c2ccccc2)cc1 -47.8%
Cc1cc2c(cc1S(=O)(=O)Nc1cc(C(F)(F)F)cc(C(F)(F)F)c1)OCC(=O)N2 -25.8%
COc1ccc(NC(=O)C2=C(C)Nc3nc(SCc4ccc(Cl)cc4)nn3C2c2cccc(OC)c2OC)cc1 (centres undefined) 2.4%
O=C(Cn1c(=O)nc(-c2ccccc2)c2ccccc21)Nc1ccc(Cl)cc1F -31.2%
CCCCOC(=O)c1ccc(NC(=O)c2sc3nc(C)cc(C)c3c2N)cc1 -54%
COc1ccc(N(C)C(=O)Cn2cc(S(=O)(=O)N3CCN(c4ccccc4F)CC3)c3ccccc3c2=O)c(OC)c1 -19.1%
Cc1[nH]c(=O)c(C#N)cc1-c1ccc2nccn2c1
COc1ccc(NC2=C(c3ccc(C(F)(F)F)cc3)C(=O)c3ccccc32)cc1 23.3%
COc1cccc(NC(=O)CN2C(=O)c3ccccc3Sc3ncccc32)c1 -7.72%
Cc1ccc(-n2nc(C)c3c(C(F)(F)F)cc(-c4cccnc4)nc32)cc1Cl -7.35%
COc1ccccc1C(=O)Nc1c(C(=O)NC(C)(C)C)oc2ccccc12 -13.3%
CCOC(=O)c1ccc(NC(=O)c2cn3c4c(ccc(Cl)c4c2=O)OC(C)C3)cc1 (centres undefined) -6.57%
COc1ccc(S(=O)(=O)N2CCN(c3ccccc3OC)CC2)cc1 2.83%
COc1cc(OC)c(N(C)C(=O)Nc2cn(CC(C)C)c(=O)c3ccccc23)cc1Cl -21.1%
CCCc1nn2c(=O)cc(COC(=O)CNC(=O)COc3ccc(C)cc3)nc2s1 -1.57%
Cc1ccc(-c2nc(C)c(CCNC(=O)c3ccccc3Br)s2)cc1 21.2%
CCCCCCCCOc1ccc(C(=O)c2ccccc2)c(O)c1 0.0262%
CNC(=O)CN1C(=O)COc2ccc(S(=O)(=O)N3CCC(C)CC3)cc21 -22.8%
COCCNC(=O)c1ccccc1NC(=O)c1nsc2ccccc12 11.7%

From PubChem BioAssay AID1508624 (National Center for Advancing Translational Sciences (NCATS), 2021)
